In the supplement of paper PMC10338343:
± gives the standard deviation. Over roughly 6,600 sequences, “pre-steady-state target cleavage rate” has its median near 0.07; the highest 2% begin near 0.72. The entries are a selection whose mix differs from that of the whole data set.

system: MIWI (PIWIL1) piRISC loaded with Kctd7 piRNA (30 nt); assay: pre-steady-state target cleavage rate (min^-1); MIWI and MILI are mouse PIWI proteins and EfPiwi is from a freshwater sponge; tags in brackets are library labels; higher = faster piRNA-guided slicing of the target; conditions: guide: Kctd7 piRNA 5'p-UGUUAAUCUCUCAGAGAAGGUGACAGUGAU; auxiliary factor: 500 nM mouse GTSF1
Summary of the method: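 Active affinity-purified piRISC (1 nM) loaded with one synthetic guide was mixed with a transcribed, DNA-blocked target RNA library (0.1 nM), with or without 500 nM GTSF1 partner protein, in HEPES–potassium acetate buffer at 33 °C for 0–8 or 0–960 min. Uncleaved targets were sequenced, normalised to depth and to weakly complementary targets, and pooled across three trials, with k3 capped at 0.0001 min^-1. The pre-steady-state cleavage rate was determined with a burst-and-steady-state fit.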

Sequence | pre-steady-state target cleavage rate
UAGACUGUCACCUUCUCAGAGAGAUUUUGA | 0.0141 ± 0.0054
UAGACUGUCACCAUCUCUGAGAGAUUUACA | 0.23 ± 0.033
UUCACUGUCUCCUUCUCUGAGAGAAUAACA | 0.278 ± 0.042
UAGACUGACAGCUUCUCUGAGAGAUUAACA | 0.64 ± 0.037
UAGUGUGUCACCAACUCUGAGAGAUUAAGA | 0.044 ± 0.011
UAGUGUGUCACCUUCUCGGAGAGAUUAACA | 0.232 ± 0.014
UAGAGAGUCACCUUCUCUGAGAGAUUUUGA | 0.0566 ± 0.018
UAGUCAGUCACCUUGUCUGAGAGAUUAACA | 0.182 ± 0.025
UUCACUGUCACCUUCGUCUGAGAGAUUAACA | 0.11 ± 0.019
UAGUGUGUCACCUUCUCUGAGAGAAAAACA | 0.111 ± 0.022
UUCACUGUCACCUUCAGAGAGAGAUAUUGA | 0.022 ± 0.011
UAGUCUGUGACCUUCUCUGAGAGAUUAUGA | 0.0556 ± 0.013
UAGUCUGUCACCCUUCUCUGAGAGAUUAACA | 0.5 ± 0.037
UAGACUGUCACCAACUCUGAGAGAUUAACA | 0.373 ± 0.039
UACACUGUCACCUUCUCUGAGAAAUUAACA | 0.189 ± 0.021
UAGUGACUCACGUUCACUGAGAGAUUAACA | 0.215 ± 0.025
AUCACUGUCACCUUCUCUGAGAGUUUAUCA | 0.753 ± 0.19
AUCACUGUGUGCUUCUCUGAGAGAUUAAGA | 0.00894 ± 0.0029
UACACUGUCUCCUUCACUGAGAGAUUAACA | 0.353 ± 0.025
UAGUGACACAGCUUCUCAGAGAGAUUAACA | 0.0162 ± 0.0039
UAGACUGUCACCUUCUCUGAAGAUUAACA | 0.00926 ± 0.0017
UAGUGUGCACCUUCUCUGAGAGAUUAACA | 0.515 ± 0.045
UAGUGUGACACCUUCUCUGACAGAUUAACA | 0.203 ± 0.018
UACACUGUCACCUUGUCUGAGAGUUUAACA | 0.442 ± 0.11
UAGUGUGACACCUUCUCAGAGAGAUUAACA | 0.188 ± 0.017

Sequence | pre-steady-state target cleavage rate
UAGUGACAGACCUUCUCUCAGAGAUUAUCA | 0.0128 ± 0.0053
UUCACUGUCACCUUCUCUGAGAGUUUAUGA | 0.71 ± 0.18
UAGUGUGUCACCUUCUCUGAGACAAUAACA | 0.117 ± 0.031
UUCACUCUCAGCUUCUCUGAGAGAUUAACA | 0.177 ± 0.019
UAGUGACAGUCCUUCCCUGAGAGAUUAACA | 0.0208 ± 0.0049
UAGACUGUCACCUACUCUGAGAGAUUUACA | 0.254 ± 0.034
AUCACUGUCACCUAGACUGAGAGAUUAACA | 0.0469 ± 0.011
UAGUGAGUCAGGUUCUCUGAGAGAUUAAGA | 0.0225 ± 0.0047
UACACUGACACCUUCUCUGACAGAUUAACA | 0.384 ± 0.032
UAGUGACUCACCUUCACUGAGAGAAUAACA | 0.046 ± 0.017
UAGUCUGUCACCUUUCUCUGAGAGAUUAACA | 0.606 ± 0.026
UACACUGUCACCUUUCUGAGAGAUUAACA | 0.444 ± 0.027
UAGUCUGUCACCUUCUCUGAGAGAUAAAGA | 0.0284 ± 0.0084
UAGUCUGUCACGCUUCUCUGAGAGAUUAACA | 0.506 ± 0.025
UUCACUGUCACCUUCUCUGAAGAUUAACA | 0.038 ± 0.013
AUCACUGUCACCUUCUCUGAGAGAUUUAACA | 0.548 ± 0.06
UAGUCUGUCACCUUCUCUGAGAGAUAAACA | 0.344 ± 0.039
UUCACUGUCUCCUUCUCUGAGACAUUAACA | 0.08 ± 0.011
UUCACUGUCACCUUCUCUGAGACUAUAACA | 0.00638 ± 0.0027
UUCACUGACACCUUCUCUGAGAGAAUAACA | 0.451 ± 0.087
AUCACUGUCACCUUCACUGAGAGAUUAUCA | 0.309 ± 0.044
AUCACUGUGACCUUCUCUGAGAGAUUAUCA | 0.199 ± 0.023
UAGACAGUCACCUUCACUGAGAGAUUAACA | 0.324 ± 0.019
UUCACUGUCACCUUCUCUGAGAGAUUAUGA | 0.107 ± 0.022
UAGUGACAGUGGUUCUCUCUCAGAUUAACA | < 0.0001

Sequence | pre-steady-state target cleavage rate
UUCACUGUCACCUACUCUGAGAGAUUAACA | 0.61 ± 0.032
UUCACUGUCGCCUUCUCUGAGAGAUUAACA | 0.665 ± 0.043
UACUCUGUCACGUUCUCUGAGAGAUUAACA | 0.636 ± 0.028
UUCACUGGCACCUUCUCUGAGAGAUUAACA | 0.728 ± 0.15
UAGUGACAGUCCUUCUCUGAGAGAUUUACA | 0.0354 ± 0.0061
UAGUGACACACCUUCUCUGAGAGAUUUAACA | 0.215 ± 0.024
UAGUGACAGUCCUUCUCUGAGACAUUAACA | 0.0121 ± 0.0033
AUCACUGUCACCUUCUGUGAGACAUUAACA | 0.163 ± 0.016
UAGUCUGUCACCAUCUCUGAGAGAAUAACA | 0.232 ± 0.038
UAGUGACUGACCUUCUCAGAGAGAUUAACA | 0.0136 ± 0.0049
UAGUGACAGACCCUCUCUGAGAGAUUAACA | 0.0244 ± 0.006
UAGUGACUCACUCUUCUCUGAGAGAUUAACA | 0.137 ± 0.012
UAGUGACAGUGGAAGACUGAGAGUAUAACA | < 0.0001
UAGUCUCUCACCUUCUCUGACAGAUUAACA | 0.418 ± 0.024
UAGUGAGUCAGCUUCUCUGAGAGAUUAACA | 0.6 ± 0.036
AUCACAGUCACCUUCUCUGUGAGAUUAACA | 0.197 ± 0.025
UACACUGUCACCUUCUCUCAGAGAAUAACA | 0.0449 ± 0.0095
UUGACAGUCACCUUCUCUGAGAGAUUAACA | 0.715 ± 0.032
UAGUGACACAGCUUCUCUGAGAGAUUAACA | 0.186 ± 0.017
UACACUCUCACCUUCUCUGAGAGAUUAUCA | 0.13 ± 0.03
AUCACUGUCUCCUUCUCUGAGACAUUAACA | 0.0796 ± 0.013
UAGUGACUCACCUUCUCAGAGAGAUUAUCA | 0.0393 ± 0.0058
UACACUGACACCUUCUCUGAGAGAUUAUCA | 0.167 ± 0.032
